These results are taken from PubChem BioAssay AID488969 (Vanderbilt High Throughput Screening Facility, 2010).

Over roughly 110,000 compounds, “z-score” has its median near -0.1; the highest 2% begin near 2. The list shows a part of the results.

The target in the experiment is Metabotropic glutamate receptor 8 (Rattus norvegicus) (UniProt P70579). In words: mGluR8 Gi/Go-coupled signaling modulation – cell-based, rat, thallium flux, HTS, primary screen (AID 488969). Conditions: HEK293 rat mGluR8, GIRK (G protein-gated inwardly rectifying potassium channel) thallium flux, FluoZin2; at 10 µM; stronger effect = higher value; submaximal glutamate (EC20) added with thallium.
Sequence of UniProt P70579 (P70579 whole entry, looked up): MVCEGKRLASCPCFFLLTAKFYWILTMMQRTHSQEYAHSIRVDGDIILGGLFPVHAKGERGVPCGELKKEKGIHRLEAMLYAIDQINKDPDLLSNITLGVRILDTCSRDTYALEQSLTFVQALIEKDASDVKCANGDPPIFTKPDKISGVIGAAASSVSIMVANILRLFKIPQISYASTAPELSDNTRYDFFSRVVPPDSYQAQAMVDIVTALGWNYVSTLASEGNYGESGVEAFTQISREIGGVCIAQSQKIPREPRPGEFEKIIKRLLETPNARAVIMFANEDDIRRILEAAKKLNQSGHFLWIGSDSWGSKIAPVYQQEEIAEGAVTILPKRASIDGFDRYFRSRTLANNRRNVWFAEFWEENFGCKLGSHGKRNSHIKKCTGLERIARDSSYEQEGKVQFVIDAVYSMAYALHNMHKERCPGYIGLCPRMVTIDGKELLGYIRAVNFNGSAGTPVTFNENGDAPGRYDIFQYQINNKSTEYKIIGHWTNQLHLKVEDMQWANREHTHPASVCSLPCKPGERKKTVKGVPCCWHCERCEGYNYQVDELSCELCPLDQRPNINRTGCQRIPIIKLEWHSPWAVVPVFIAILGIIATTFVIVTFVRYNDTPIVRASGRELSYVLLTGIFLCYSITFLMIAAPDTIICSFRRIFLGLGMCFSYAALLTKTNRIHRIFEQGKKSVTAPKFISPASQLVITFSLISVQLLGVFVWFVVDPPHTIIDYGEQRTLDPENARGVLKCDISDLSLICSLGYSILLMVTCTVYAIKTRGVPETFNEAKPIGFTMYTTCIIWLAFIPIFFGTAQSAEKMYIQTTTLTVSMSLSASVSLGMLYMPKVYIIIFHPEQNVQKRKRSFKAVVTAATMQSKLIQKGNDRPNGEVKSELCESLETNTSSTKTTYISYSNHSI
`O=C1CCCc2nc(N3CCc4ccccc43)ncc21` came in with a z-score of -0.717.
The value for `Cc1cc(C)c(C)c(/C=C(/C#N)C(N)=S)c1C` was 0.448.
The value for `N/C(=N\c1nc2c(c(=O)[nH]1)CCCC2)Nc1ccc(Oc2ccccc2)cc1` was -0.175; that for `Cc1nn(C)c(C)c1C(=O)NN` was -0.373; that for `O=C(Nc1ccc2c(c1)OCO2)c1cnn2c1NC(c1ccco1)CC2C(F)(F)F` (stereo unspecified) was -0.418.
In turn, `CCc1nn2cc(C(=O)c3ccccc3O)cnc2c1-c1ccc(F)cc1` displayed a z-score of -0.445.
In turn, `Cc1c(C(=O)OC(C)C)sc(NC(=O)c2cccnc2)c1C#N` had a z-score of -0.473.
For `Oc1c(C(c2cccs2)N2CCOCC2)sc2ncnn12` (stereo unspecified), the z-score was -0.135.
Consider `CN1CCN(Cc2nc3c([nH]2)c(=O)[nH]c(=O)n3C)CC1`, for which the z-score is -0.507.
The value for `Cc1cccc(NC(=S)Nc2ccc(Oc3ccccc3)cc2)n1` was 0.00566.
As for `COc1ccccc1OC(C)c1nnc(SCC(=O)Nc2c(C)n(C)n(-c3ccccc3)c2=O)n1-c1ccccc1` (stereo unspecified), the z-score amounted to 0.0106.
The value for `CCC1Oc2ccccc2N(Cc2ccccc2C)C1=O` (stereo unspecified) was -0.203; that for `Cc1cc(=O)oc2c(CN(C)Cc3ccccc3)c(O)ccc12` was -0.0689; that for `CCOC(=O)Cc1csc(NC(=O)CSc2nnc(C)n2C)n1` was -0.145.
Regarding `Cc1ccc(-c2nc(N)sc2CC(=O)OCC(=O)NCC2CCCO2)cc1` (stereo unspecified), the z-score is -0.161.
As to `S=c1[nH]nc(-c2ccccc2)n1/N=C/c1cccs1`, the z-score stood at 0.587.
`CCC1(c2ccc(F)cc2)NC(=O)N(CC(=O)c2ccc[nH]2)C1=O` (stereo unspecified) came in with a z-score of 0.707.
Consider `CC1CCCC(NC(=O)COC(=O)c2c[nH]c(=O)[nH]c2=O)C1C` (stereo unspecified), for which the z-score came out at 0.249.
The figure for `COC(=O)c1nn(-c2ccccc2)c(Sc2ccc(Br)cc2)c1/C=N/O` is -0.191; for `O=C(O)c1ccc(-c2ccc(O)c(F)c2)cc1` it is 0.639.
The value for `O=C(CCS(=O)(=O)Cc1ccccc1)NC1CCCCC1` was -0.346; that for `O=C(N/N=C/c1ccccc1OCc1ccccc1)c1cccs1` was -0.124.
Compound `COc1ccc(NC(=O)CN2CCN(c3ccc(F)cc3)CC2)cc1Cl` came in with a z-score of 0.303.
The compound `Cc1cccc2sc(N(CCN(C)C)C(=O)/C=C/c3cccs3)nc12` registered a z-score of -0.145.
Consider `CC(=O)c1c(C)oc2ccc(NS(=O)(=O)c3ccc(O)c(C(=O)O)c3)cc12`, for which the z-score came out at 0.0135.
Turning to `CC(C)Cn1c(-c2ccco2)csc1=Nc1cccnc1`, the z-score was -0.22.
With `C=CCn1c(COC)nnc1SCC(=O)c1ccc(F)cc1`, the z-score is -0.00617.
`Cc1cc2c(c(=O)n1Cc1ccc3c(c1)OCO3)C(c1cccnc1)C(C#N)=C(N)O2` (stereo unspecified) gave a z-score of -0.479.
The value for `Cc1cccc(CS(=O)(=O)Cc2ccc(C(=O)NCCCN3CCOCC3)o2)c1` was -0.0985.
`c1ccc(N2CCN(c3ncccn3)CC2)cc1` gave a z-score of -0.166.
The value for `Cc1oc(-c2ccccc2F)nc1CS(=O)CC(=O)NCc1ccc2c(c1)OCO2` (stereo unspecified) was -0.385.
